# Experimental data: the supplement of paper PMC3334620
# Whole data set: some 33,000 sequences, median “E-score (-0.5 to 0.5)” near -0.032, cut for the highest 2% near 0.36. The list shows a part of the results.
# Target: T1, Sko1 (UniProt Q02100)
# T1 sequence: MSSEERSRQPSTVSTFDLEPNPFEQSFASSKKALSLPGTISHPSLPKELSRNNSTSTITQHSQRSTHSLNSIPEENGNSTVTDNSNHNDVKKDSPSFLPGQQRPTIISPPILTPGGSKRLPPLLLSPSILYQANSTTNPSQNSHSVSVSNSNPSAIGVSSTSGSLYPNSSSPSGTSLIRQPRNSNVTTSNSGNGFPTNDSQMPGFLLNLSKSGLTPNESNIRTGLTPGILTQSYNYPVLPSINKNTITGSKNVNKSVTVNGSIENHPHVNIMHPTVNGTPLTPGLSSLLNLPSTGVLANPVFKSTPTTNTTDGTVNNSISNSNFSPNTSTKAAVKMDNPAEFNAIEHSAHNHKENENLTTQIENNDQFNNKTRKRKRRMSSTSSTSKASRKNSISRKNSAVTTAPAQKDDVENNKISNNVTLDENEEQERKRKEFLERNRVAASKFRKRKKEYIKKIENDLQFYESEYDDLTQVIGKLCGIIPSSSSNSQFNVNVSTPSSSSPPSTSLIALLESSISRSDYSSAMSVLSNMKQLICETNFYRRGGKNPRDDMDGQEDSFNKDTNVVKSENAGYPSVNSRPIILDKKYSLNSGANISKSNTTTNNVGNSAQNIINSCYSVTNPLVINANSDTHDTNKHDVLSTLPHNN
# Assay: PBM E-score (8-mer binding enrichment) (E-score (-0.5 to 0.5)); higher = stronger / more preferred TF binding; most listed sequences are background and not binding sites
# Details: protein concentration: 200 nM; construct: GST-full length
# How it was run: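 Yeast transcription factors carrying a GST tag, as full-length proteins or DNA-binding domains, were produced by PURExpress in vitro transcription/translation. About 100-200 nM protein was applied to universal all-10-mer Agilent arrays, double-stranded by primer extension on fresh or once-stripped slides. Bound protein was detected with fluorescent anti-GST, and scans were normalised with masliner. The Universal PBM Analysis Suite gave each ungapped eight-base word, pooled with its reverse complement, an E-score, a modified Wilcoxon-Mann-Whitney statistic.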
row,Sequence,PBM E-score
1,AGGAGGCG,-0.108
2,GAGGCACA,-0.214
3,AGCCTGCA,-0.0657
4,CTATATAG,0.123
5,ATTGCCGA,-0.135
6,CTTCCCCA,-0.117
7,AGAATGGA,0.0967
8,CCAATTTA,0.129
9,AACGCCTC,-0.352
10,CCAGTAAC,-0.136
11,CTAAAGTA,-0.0143
12,GGTGTACA,-0.0227
13,ACCCGTAG,-0.444
14,ACAACCTC,-0.186
15,CGCTTATC,-0.165
16,ATCGCAAG,-0.178
17,CAGGGGCG,-0.299
18,AACGACCT,-0.0493
19,CTGTGTGA,0.055
20,CATTGCGG,-0.109
21,GCGTGTGA,0.107
22,TTCATGAA,0.127
23,CAGCGCGA,0.066
24,CGCTACCG,-0.0311
25,AGCATAGC,0.148

row,Sequence,PBM E-score
1,GGTCTCTA,-0.124
2,GGAGTAAC,-0.136
3,AGCGATCA,-0.0729
4,GCATCCCA,-0.257
5,GGTTGGTA,0.119
6,AAAGCAGG,-0.0944
7,TGCCGGCA,-0.0955
8,CATGGGGG,-0.197
9,GCCCCGAA,-0.247
10,CAGCTCTA,-0.155
11,CTATGATA,0.0697
12,GTGCAGGA,-0.0573
13,AAGTTCCG,-0.137
14,AAACGGGA,-0.176
15,AAGCTCCT,-0.186
16,AAAAATCG,0.0645
17,ACTTCTTA,0.129
18,TACTGAGA,-0.0799
19,CTTGTGGC,-0.19
20,ATTATAAT,0.209
21,CACTTAAC,-0.0297
22,GTACGTTA,0.395
23,ACCTCCGT,-0.188
24,CACGGCAC,-0.216
25,GGGTCTTA,0.0227

row,Sequence,PBM E-score
1,ACAATCAG,0.241
2,ACGCCAGT,0.0136
3,ACCAACTC,0.129
4,CCAGAAAC,-0.134
5,CTTATACC,-0.0623
6,AGTCTAAA,-0.0217
7,CTTCCGAC,-0.0849
8,GGGGCCCC,-0.258
9,GTTTCGTA,0.326
10,AAGTTGCA,0.0498
11,AAGCGGCA,-0.0835
12,GAAGCAAA,0.0725
13,AGTACGAT,0.122
14,CGGGGCGA,-0.182
15,AACCCAAG,-0.00525
16,CAGTAGGC,-0.142
17,TGTACGAA,0.242
18,CCGCGCGA,0.0754
19,GTTATATA,0.19
20,CTCGAGAC,0.12
21,ATCAACTC,0.0355
22,CTATCGGC,-0.141
23,AAGGCGAC,-0.299
24,CGTTGTGC,0.172
25,ACGGCAGT,-0.061

row,Sequence,PBM E-score
1,CACACTCG,0.076
2,CAGCTGAC,0.0244
3,CACGTCGC,0.235
4,GCAGGAGC,-0.305
5,ATCCACAA,-0.00828
6,GAGATATA,0.0861
7,ATTCCTTC,-0.128
8,AGTTGTGA,0.0903
9,AATACGGC,0.0384
10,ACGAATAC,0.313
11,GGAAACAA,-0.0744
12,CCAAACAA,0.0665
13,ACACCATG,-0.0632
14,CCTTGTAA,0.00983
15,CCGCCCGC,-0.28
16,ATTATTGC,0.253
17,GATCAGAC,-0.126
18,AAGCCTCG,-0.137
19,TAGATTAA,0.206
20,CCCGGCTC,-0.337
21,CCTTCGAA,-0.28
22,CGAGCGTC,-0.117
23,AGACTCTA,-0.13
24,CAATCAAA,0.0195
25,AACAATCC,0.0558

row,Sequence,PBM E-score
1,CCCCTGTA,-0.164
2,CGGCTGTC,-0.239
3,ACACTAAT,0.119
4,CCCAACAC,-0.283
5,CACTATGA,0.0491
6,ACTATAAT,0.00975
7,AGGAAATC,0.038
8,CCACAAAA,0.132
9,ACGTTGCG,0.284
10,CCTGTAAC,-0.0911
11,GCCATAGC,0.0202
12,AAATCATC,0.0854
13,AAAAATGT,0.115
14,AGACTCTG,-0.227
15,AAGTAGCT,0.0695
16,GTTGTATA,0.254
17,AAGAGGCA,-0.0883
18,AATGATCC,-0.00177
19,AGAACAAG,0.13
20,CCAAGCAA,-0.0553
21,CACGTGCC,0.278
22,CTGTTTCC,-0.0778
23,AGTTAGAG,-0.171
24,AGAATTGA,-0.0615
25,GTTAGTGA,0.186

row,Sequence,PBM E-score
1,ACGTGTGC,0.388
2,AAAGTCGG,-0.105
3,AGCAGTGG,-0.222
4,AGGTCTGA,0.0487
5,TTATCCAA,0.2
6,GACGGAAC,-0.0203
7,AACGCCGA,0.0746
8,CTGCGACC,-0.341
9,AGCGGAAC,-0.265
10,CTAGCTTA,0.147
11,ATAGCGGA,-0.0894
12,GGACAATA,-0.0748
13,GACAGCGC,-0.179
14,ACTCGAGG,-0.161
15,AGAAAAAT,0.152
16,CCTTGCCG,-0.227
17,CTTTCATC,-0.165
18,TCATACGA,0.278
19,CGCGGCCC,-0.114
20,GAGCTGAC,0.199
21,CTTTAGCA,-0.117
22,CGGAAGAC,-0.0906
23,ACATGTGG,-0.0358
24,AAGTTGGA,0.0615
25,GCCTTAAA,0.127

row,Sequence,PBM E-score
1,CATCAGAC,0.0948
2,CACTATTA,0.0904
3,ACGCCCAT,0.00824
4,CGTTAGGA,0.132
5,CGGTTTAA,0.00485
6,CCATGAGG,-0.211
7,GCAGAAAA,0.124
8,ACCCATGG,-0.16
9,CGATATTA,0.274
10,ATTACTGC,0.201
11,AGCTCCCA,-0.302
12,GTAGAGAA,-0.0178
13,AACATCTA,-0.104
14,AAAAACTC,0.11
15,CCAGAATA,0.125
16,CCAACTAA,0.0202
17,ACCGTGCA,0.123
18,CACGGTCC,-0.19
19,CCACTTCA,-0.126
20,CAGATTCA,-0.111
21,ACCCTTCC,-0.124
22,GATTCTGC,-0.0512
